# According to PubChem BioAssay (Tox21):
# Where “and” joins values, the source holds several entries; their conditions need not be identical. Equal entries are not always repeated. The shares of active, inactive and inconclusive entries below differ from those in the screen. For some assays here: Potencies of inconclusive entries are doubtful fits and often do not repeat. Calls of active or inactive are those of the source. Unless noted, the call rests on the fitted dose curve; in most records, active means well fitted curve in the direction sought with a large enough effect in the repeat runs; inconclusive means weak or mixed curves; inactive means no such curve, though single readings can be large; an effect the other way counts as inactive or inconclusive.
# Legend:
# [1] = qHTS assay to identify small molecule agonists of the estrogen receptor beta (ER-beta) signaling pathway - cell viability counter screen (AID 1259380)
# In short: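 Cell viability counter screen: CellTiter-Glo luminescence (30 min, room temperature) measured in the same wells as the beta-lactamase readout, after 16 hr compound exposure at 37C of ER-beta-bla HEK293T cells in 2% charcoal-stripped FBS medium.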
# [2] = qHTS assay to identify small molecule agonists of the estrogen receptor alpha (ER-alpha) signaling pathway in the presence of an antagonist - cell viability counter screen (AID 1259386)
# In short: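 Compounds tested at 15 concentrations for 22 h at 37C alongside 10.0nM (final) ICI-182,780 antagonist, in VM7Luc4E2 cells grown in phenol red-free, charcoal-stripped medium. Viability read by CellTiter-Fluor fluorescence after 1 h reagent incubation.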
# [3] = biological target: Progesterone receptor (Homo sapiens) (UniProt P06401); test: qHTS assay to identify small molecule agonists of the progesterone receptor (PR) signaling pathway (AID 1346784; calls by dose curve); conditions: PR-UAS-bla HEK293T, beta-lactamase FRET ratio, 16 h; series mostly up to 92.4 µM
# In short: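 Using charcoal-stripped serum (2%) to limit endogenous steroids, PR-UAS-bla HEK 293T cells received compounds for 16 hr at 37C after 6 hr plating; beta-lactamase FRET fluorescence was recorded following 2 hr substrate loading at room temperature.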
# Further: nearly all actives have a fitted effect of over 30% in size.
# Potency means the concentration at half of the fitted maximal effect; tags describe the fitted curve by direction and shape or compound fluorescence and quenching.
# UniProt P06401, sequence (P06401 whole entry, looked up): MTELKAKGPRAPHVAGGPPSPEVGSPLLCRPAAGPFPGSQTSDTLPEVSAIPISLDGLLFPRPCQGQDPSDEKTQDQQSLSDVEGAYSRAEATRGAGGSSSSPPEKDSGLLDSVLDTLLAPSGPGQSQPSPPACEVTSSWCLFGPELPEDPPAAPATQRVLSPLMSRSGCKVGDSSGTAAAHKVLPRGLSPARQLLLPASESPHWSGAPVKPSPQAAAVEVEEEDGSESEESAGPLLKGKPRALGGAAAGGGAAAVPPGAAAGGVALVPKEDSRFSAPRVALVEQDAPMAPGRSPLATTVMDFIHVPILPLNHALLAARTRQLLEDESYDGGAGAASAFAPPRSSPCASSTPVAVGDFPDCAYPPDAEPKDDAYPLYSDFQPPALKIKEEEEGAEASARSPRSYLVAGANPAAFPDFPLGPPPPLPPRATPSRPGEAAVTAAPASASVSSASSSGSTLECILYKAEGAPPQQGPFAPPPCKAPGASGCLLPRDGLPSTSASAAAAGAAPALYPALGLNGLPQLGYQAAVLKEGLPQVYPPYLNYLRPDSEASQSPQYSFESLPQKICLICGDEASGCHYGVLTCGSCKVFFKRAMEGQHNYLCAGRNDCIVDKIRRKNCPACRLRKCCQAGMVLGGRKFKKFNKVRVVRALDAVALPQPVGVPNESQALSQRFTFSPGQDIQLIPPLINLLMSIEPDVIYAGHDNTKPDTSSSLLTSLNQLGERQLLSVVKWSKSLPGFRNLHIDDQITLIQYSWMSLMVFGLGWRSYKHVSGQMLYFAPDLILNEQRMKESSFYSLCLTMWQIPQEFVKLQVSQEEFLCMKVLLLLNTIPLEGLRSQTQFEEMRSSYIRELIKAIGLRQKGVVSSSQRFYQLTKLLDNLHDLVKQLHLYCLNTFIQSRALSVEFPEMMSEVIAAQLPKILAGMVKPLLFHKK
SMILES,Potency [1],Potency [2],Potency [3]
CCCCOCCOCCOC(=O)CCCCC(=O)OCCOCCOCCCC,inactive,inactive,–
NS(=O)(=O)c1cc(C2(O)NC(=O)c3ccccc32)ccc1Cl (stereo unspecified),"inconclusive: 26.6 µM [rising, partial curve, poor fit]",inactive,–
CN(C)c1ccc(C(=N)c2ccc(N(C)C)cc2)cc1,"inconclusive: 24 µM [cytotoxic, partial curve] and inconclusive: 23.4 µM [cytotoxic, partial curve]",active: 30.3 µM and active: 20.9 µM,–
CCC(=O)c1c(O)cc(O)cc1O,"inconclusive: 33.5 µM [cytotoxic, single point]",–,inactive
CCCCCCC1CCCC(=O)O1 (stereo unspecified),"inconclusive: 68.6 µM [cytotoxic, partial curve]",inactive,"inconclusive: 48.6 µM [rising, single point]"
